No constants are given. Whether binding was seen depends on the method and setting. Some entries that bind do so weakly or less than the wild type. Sequences can lack the tags named with a protein.

Common to all, as to experiment: two-hybrid; one-hybrid assay: Kar4p-Gal4 DNA-binding domain recruits endogenous Ste12p to drive the HIS3 reporter in PJ69-4A; 10-fold serial dilutions on SC-HIS with 3 uM alpha-factor, 30 degrees; graded ++++ to -
For assay [1], the target named is T1, Kar4p F186S fused to the Gal4p DNA-binding domain (S. cerevisiae) (UniProt P25583).
T1 sequence: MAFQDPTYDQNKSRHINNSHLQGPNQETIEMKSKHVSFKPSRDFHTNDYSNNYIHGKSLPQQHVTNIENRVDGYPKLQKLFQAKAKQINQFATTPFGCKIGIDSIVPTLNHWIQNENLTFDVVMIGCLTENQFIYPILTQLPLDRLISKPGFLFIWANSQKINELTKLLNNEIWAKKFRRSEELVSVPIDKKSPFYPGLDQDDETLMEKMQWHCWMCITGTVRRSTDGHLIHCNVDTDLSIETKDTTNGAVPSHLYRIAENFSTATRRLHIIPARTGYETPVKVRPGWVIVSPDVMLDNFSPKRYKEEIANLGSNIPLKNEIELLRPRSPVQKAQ

In assay [2] the target is T2, Kar4p H213Y fused to the Gal4p DNA-binding domain (S. cerevisiae) (UniProt P25583).
T2 sequence: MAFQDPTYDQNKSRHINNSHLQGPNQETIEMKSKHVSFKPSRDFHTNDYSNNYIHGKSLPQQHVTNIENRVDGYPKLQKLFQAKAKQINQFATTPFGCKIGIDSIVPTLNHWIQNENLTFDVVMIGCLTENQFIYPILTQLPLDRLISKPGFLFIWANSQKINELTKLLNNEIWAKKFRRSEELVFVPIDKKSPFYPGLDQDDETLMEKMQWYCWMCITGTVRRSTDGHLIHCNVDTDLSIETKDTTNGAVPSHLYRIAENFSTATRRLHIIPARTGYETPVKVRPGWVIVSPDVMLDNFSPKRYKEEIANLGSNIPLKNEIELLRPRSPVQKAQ

Assay [3] deals with T3, Kar4p P293L fused to the Gal4p DNA-binding domain (S. cerevisiae) (UniProt P25583).
T3 sequence: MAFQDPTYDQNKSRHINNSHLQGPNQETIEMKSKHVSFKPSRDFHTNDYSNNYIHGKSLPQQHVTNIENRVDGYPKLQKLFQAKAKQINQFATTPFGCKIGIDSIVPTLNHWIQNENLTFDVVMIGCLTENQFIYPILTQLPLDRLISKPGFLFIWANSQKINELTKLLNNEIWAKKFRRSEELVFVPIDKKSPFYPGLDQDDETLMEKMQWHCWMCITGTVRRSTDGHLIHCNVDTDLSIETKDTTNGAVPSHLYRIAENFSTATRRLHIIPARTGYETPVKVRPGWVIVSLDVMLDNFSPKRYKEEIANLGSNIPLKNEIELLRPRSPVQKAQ

In assay [4] the target is T4, Kar4p W156G fused to the Gal4p DNA-binding domain (S. cerevisiae) (UniProt P25583).
T4 sequence: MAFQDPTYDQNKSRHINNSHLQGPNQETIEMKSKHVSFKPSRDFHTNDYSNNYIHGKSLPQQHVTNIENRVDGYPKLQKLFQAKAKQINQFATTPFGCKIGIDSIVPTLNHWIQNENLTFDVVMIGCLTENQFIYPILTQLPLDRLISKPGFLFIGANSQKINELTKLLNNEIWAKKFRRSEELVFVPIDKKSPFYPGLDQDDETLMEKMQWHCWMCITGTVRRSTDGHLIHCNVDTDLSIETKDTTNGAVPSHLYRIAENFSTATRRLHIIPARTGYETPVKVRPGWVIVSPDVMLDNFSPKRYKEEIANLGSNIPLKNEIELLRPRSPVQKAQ

Assay [5] concerns the target T5, Kar4p fused to the Gal4p DNA-binding domain (S. cerevisiae) (UniProt P25583).
T5 sequence: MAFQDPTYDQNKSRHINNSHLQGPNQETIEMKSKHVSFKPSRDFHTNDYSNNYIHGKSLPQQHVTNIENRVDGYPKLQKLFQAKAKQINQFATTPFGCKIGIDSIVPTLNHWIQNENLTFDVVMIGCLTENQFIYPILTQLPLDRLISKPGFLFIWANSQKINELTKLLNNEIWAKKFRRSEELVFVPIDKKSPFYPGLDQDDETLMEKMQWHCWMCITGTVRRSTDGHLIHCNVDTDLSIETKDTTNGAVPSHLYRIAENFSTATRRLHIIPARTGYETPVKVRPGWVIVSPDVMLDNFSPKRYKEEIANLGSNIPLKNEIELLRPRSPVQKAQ

For assay [6], the target named is T6, Kar4p ΔP281V282 fused to the Gal4p DNA-binding domain (S. cerevisiae) (UniProt P25583).
T6 sequence: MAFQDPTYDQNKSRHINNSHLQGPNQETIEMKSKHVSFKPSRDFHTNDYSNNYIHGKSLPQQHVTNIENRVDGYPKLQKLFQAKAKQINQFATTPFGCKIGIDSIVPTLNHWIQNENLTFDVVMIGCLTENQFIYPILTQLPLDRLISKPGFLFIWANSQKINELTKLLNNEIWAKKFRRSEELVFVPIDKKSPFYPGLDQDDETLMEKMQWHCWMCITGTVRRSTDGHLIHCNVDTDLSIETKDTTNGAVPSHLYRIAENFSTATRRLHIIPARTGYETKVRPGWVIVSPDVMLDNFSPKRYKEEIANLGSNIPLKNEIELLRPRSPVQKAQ

B1: Ste12p (protein, UniProt P13574 1-688)
chain: MKVQITNSRTEEILKVQANNENDEVSKATPGEVEESLRLIGDLKFFLATAPVNWQENQIIRRYYLNSGQGFVSCVFWNNLYYITGTDIVKCCLYRMQKFGREVVQKKKFEEGIFSDLRNLKCGIDATLEQPKSEFLSFLFRNMCLKTQKKQKVFFWFSVAHDKLFADALERDLKRESLNQPSTTKPVNEPALSFSYDSSSDKPLYDQLLQHLDSRRPSSTTKSDNSPPKLESENFKDNELVTVTNQPLLGVGLMDDDAPESPSQINDFIPQKLIIEPNTLELNGLTEETPHDLPKNTAKGRDEEDFPLDYFPVSVEYPTEENAFDPFPPQAFTPAAPSMPISYDNVNERDSMPVNSLLNRYPYQLSVAPTFPVPPSSSRQHFMTNRDFYSSNNNKEKLVSPSDPTSYMKYDEPVMDFDESRPNENCTNAKSHNSGQQTKQHQLYSNNFQQSYPNGMVPGYYPKMPYNPMGGDPLLDQAFYGADDFFFPPEGCDNNMLYPQTATSWNVLPPQAMQPAPTYVGRPYTPNYRSTPGSAMFPYMQSSNSMQWNTAVSPYSSRAPSTTAKNYPPSTFYSQNINQYPRRRTVGMKSSQGNVPTGNKQSVGKSAKISKPLHIKTSAYQKQYKINLETKARPSAGDEDSAHPDKNKEISMPTPDSNTLVVQSEEGGAHSLEVDTNRRSDKNLPDAT
With B1, the binding entry was “no binding” in assay [1]; “binds” in assay [2]; “no binding” in assay [3]; “no binding” in assay [4]; “binds” in assay [5]; “binds” in assay [6].

The record behind these values is PMC10470960.
